Data as given in PMC4336329 (PLoS ONE, 2015).
The whole screen tested about 310,000 compounds, of which about 14,000 (4.5%) showed an effect of 50% or more. Effects have a minus sign here. This is one part of the list.

target: human ether-à-go-go-related gene (hERG) potassium channel (human, UniProt Q12809); experiment: primary screen, population patch clamp on CHO cells stably expressing hERG
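Note: peak tail current of the secondary pulse compared with the same well before compound.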

Chain of human ether-à-go-go-related gene (hERG) potassium channel (Q12809 whole entry, looked up): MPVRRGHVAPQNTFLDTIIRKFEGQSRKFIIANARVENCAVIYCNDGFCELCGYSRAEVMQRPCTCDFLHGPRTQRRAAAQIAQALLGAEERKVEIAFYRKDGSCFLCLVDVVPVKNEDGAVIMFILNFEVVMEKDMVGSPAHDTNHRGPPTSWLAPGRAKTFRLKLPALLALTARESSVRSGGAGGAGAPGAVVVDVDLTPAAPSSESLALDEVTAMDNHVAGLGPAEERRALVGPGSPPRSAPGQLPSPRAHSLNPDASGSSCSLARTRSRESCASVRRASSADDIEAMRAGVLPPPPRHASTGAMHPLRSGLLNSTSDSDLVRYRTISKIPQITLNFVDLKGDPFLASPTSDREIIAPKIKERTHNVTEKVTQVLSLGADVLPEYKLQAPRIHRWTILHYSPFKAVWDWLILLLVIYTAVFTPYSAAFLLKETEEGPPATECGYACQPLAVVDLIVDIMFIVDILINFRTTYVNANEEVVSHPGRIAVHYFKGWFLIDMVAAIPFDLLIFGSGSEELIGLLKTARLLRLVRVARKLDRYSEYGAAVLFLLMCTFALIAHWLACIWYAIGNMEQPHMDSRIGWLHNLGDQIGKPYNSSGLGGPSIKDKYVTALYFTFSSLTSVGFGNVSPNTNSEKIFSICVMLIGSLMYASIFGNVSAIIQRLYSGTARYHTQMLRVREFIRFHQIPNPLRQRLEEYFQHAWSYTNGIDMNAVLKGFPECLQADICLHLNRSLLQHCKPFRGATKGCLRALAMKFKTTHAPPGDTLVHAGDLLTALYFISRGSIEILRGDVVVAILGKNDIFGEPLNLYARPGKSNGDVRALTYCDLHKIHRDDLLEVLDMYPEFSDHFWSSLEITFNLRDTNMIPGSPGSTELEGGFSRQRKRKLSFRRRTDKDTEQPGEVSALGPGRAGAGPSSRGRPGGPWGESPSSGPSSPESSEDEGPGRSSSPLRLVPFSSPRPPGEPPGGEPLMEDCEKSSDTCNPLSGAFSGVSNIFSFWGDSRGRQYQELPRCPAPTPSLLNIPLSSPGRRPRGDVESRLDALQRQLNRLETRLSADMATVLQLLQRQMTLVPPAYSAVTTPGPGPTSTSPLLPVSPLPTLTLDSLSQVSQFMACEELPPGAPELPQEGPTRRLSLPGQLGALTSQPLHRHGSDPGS

Point of comparison: `Cc1nn(-c2ccccc2)c(C)c1C(=O)OCC(=O)Nc1ccccc1C(F)(F)F`, “hERG current change (%, negative = inhibition) at 10uM” value -2.17%. Against it:
- Cc1cccc(CC(=O)NCCN2CCCCC2)c1 — higher, 4.07%
- CCOc1ccc(S(=O)(=O)Nc2cc(Sc3ncn[nH]3)c3oc(=O)sc3c2)cc1 — higher, 3.08%
- CN1CCc2c(sc(/N=C/c3cc(Cl)ccc3O)c2C#N)C1 — higher, 3.09%
- Cc1cc(C)c2cc(C(=O)N3CCC(C(=O)c4ccc(F)cc4)CC3)[nH]c2c1 — higher, 2.63%
- Cc1ccc(C(=O)CCC(=O)NCc2ccccc2)cc1 — higher, 18.4%
- CN(Cc1nc(-c2ccncc2)no1)S(=O)(=O)c1ccccc1 — higher, 3.91%
- COc1cccc(CNC(=O)CCC2CCCN(C(=O)Cc3ccccc3F)C2)c1 (stereo not drawn) — lower, -7.61%
- CCCCOc1ccc(C(=O)N=c2sccn2C)cc1OC — higher, 12.2%
- COc1ccc(C2/C(=C(/O)c3ccc(Br)cc3)C(=O)C(=O)N2C)cc1 (stereo not drawn) — lower, -12.7%
- COc1ccc(CCN(C)CC(=O)Nc2ccc(F)c(Cl)c2)cc1OC — lower, -35.3%
- CC(C)C(O)P(=O)(OCc1ccccc1)c1ccc(N(C)C)cc1 (stereo not drawn) — lower, -5.55%
- COc1cc(C(=O)Oc2ccc(Br)cc2C(=S)N2CCOCC2)cc(OC)c1OC — higher, -0.563%
- COc1cc(C2C(C(N)=O)=C(C)Nc3nc(CCCO)nn32)cc(OC)c1OC (stereo not drawn) — higher, 3.75%
- CCN1CCN(c2ccc(NC(=O)C(C)C)cc2Cl)CC1 — lower, -20%
- CCn1ccnc1C(O)c1ccccc1OC (stereo not drawn) — higher, 1.47%
- CCN(CC(=O)Nc1cccc(OC)c1)C(=O)c1cccc(S(=O)(=O)N2CCc3ccccc32)c1 — higher, -1.63%
- CC(C)N1C(=O)S/C(=C/c2ccc3c(c2)n(C)c(=O)n3C)C1=O — lower, -2.26%
- CC(Cc1ccccc1)N/C=C1\CC(=O)NC1=O (stereo not drawn) — higher, -1.56%
- Cc1ccc(N(CC(=O)NC2CC2)S(=O)(=O)c2ccccc2)c(C)c1 — higher, 3.86%
- CCCCC(=O)O[C@]1(C(=O)CO)CC[C@H]2[C@@H]3CCC4=CC(=O)CC[C@]4(C)[C@H]3[C@@H](O)C[C@@]21C — lower, -8.61%
- O=C(NCCOc1ccc(Cl)cc1)c1ccc2c(c1)OCCO2 — lower, -7.8%
- C/C(=N\NC(=S)NCCc1ccccc1)c1ccc(C#N)cc1 — lower, -10.3%
- O=C(Cn1cc(C(=O)c2ccccc2F)c2ccccc21)NC1CC1 — lower, -4.44%
